B1: LINE1-full (parent)
chain: UACGUAGGUGGUUUUCCCCUGAUAGUGCUAAGGGGGCCUGGAAGUUUGGACUGGGCAGAGCUCAACACAGCGUGGCAAAGUGGCUGUGGCUAGACUGCCUCUCUGGAUUCCUCGUCACUCAGCAGGGCAUCUCUGAGAGAAAUGCC

These results are taken from the RNAGym collection of RNA variant scans (doi:10.7554/elife.90254).

Read counts are not given, so values of variants with three or more changes are uncertain.

The data set covers variants of B1. In words: self-cleavage, relative activity (ratio to wild type); higher = more cleavage; in vitro, sequencing; the parent is a self-cleaving ribozyme.
Take A31G A79U A121U C146U: the self-cleavage was determined as 1.96.
Next, U119C A121G A136G: 1.39.
G35A U62C U108A A138U: the self-cleavage is 0.02.
As for U15C U20C A22G A117G, the self-cleavage is 2.63.
For U12C U96A A142G U143C the value was 0.19; for U46A A50G A124U G127C, 1.42.
For G25C U26C A57G A107G the value was 0.
Regarding G54A A69C U102C, the self-cleavage turned out to be 0.06.
For U20A A24C A69G A141G the value was 0.56; for U20A A43G U143A, 1.03; for C63U U119C A124G, 0.31.
For U15C A22U A57G U81C U87A the value was 0.07; for G7C U130C U134C, 1.59; for A50G U73C U87A U132C, 0.
Next, U73G U134G A141G: 1.48; U9G A43G C66U: 0.22; U20A A77G U119C U130C: 1.53.
U15A U96G A141G: the self-cleavage worked out at 0.
For A57G A65U U73A C76U U85A U132C the value was 0.02; for U20C U73A U100A U134C, 1.33; for U9C G21U U39A U47A A140G, 1.12.
For U9C U45C G54A U73A the value was 0.44.
Next, U9A U62A A141G: 0.1; U9C U20C U143A: 2.35.
Regarding A31U U39A A107U, the self-cleavage came out at 0.79.
Next, G27A U29C A43G A140G: 1.06; C19U U20C G89A: 0.06.
For A57U A69U G93A the value was 0.05; for U13C U102C U108C, 0.84; for U13C A50U A78G, 0.62.
For A42U A92G A124G the value was 0.1.
U73C U87A A136G A142G: the self-cleavage came out at 0.3.
Next, G83U A94G C99U: 0.11; U15A A64G G82A: 0.15.
For A2G U12C U13C A69U U73C U96A A117G the value was 1.84; for U15C G82A A121G, 2.09.
For U15C G74A A77G U87C A121U A142U the value was 0.3; for A2U U15C A24G A30C G34A A65G, 0.
On to C19U C56U A65U U96C, for which the self-cleavage was determined as 0.04.
Next, U26C U85C A142G: 0.54; U23G U26A U62C U73A C103A: 0.03.
For C37U A67G U81A the value was 0.39.
Next, U12C A24G U91G: 0.26.
Turning to A42G U47A A69G A92G G122A, the self-cleavage stood at 0.08.
For U9A U14A A65U A77G the value was 0.56.
For A2G U20A A140G U143C the value was 0.82; for G11A C95U A129G A138G, 0.1; for G7U A43G A140G, 0.2.
Next, U14C U52G U96G: 0; U13A U108C U119C: 0.74.
Regarding A42G C51A U52C U108C C113U, the self-cleavage is 1.61.
For A6G U81C C90U the value was 0.11.
For the variant U47C U62C A77G C99U U134C, the self-cleavage amounted to 0.05.
As for U9A U13C U45C A92G U112C, the self-cleavage was found to be 0.
Consider U20C A31G G35A G54A U143A, for which the self-cleavage was determined as 0.63.
For A69U U73C A136G the value was 0.05; for U13A U73C A79G U104A, 1.31.
For U15C U29C A92G U100A U112C the value was 0.
For U9A A59G A107G, the self-cleavage was 0.
Regarding A67G A136G A140G, the self-cleavage was determined as 0.84.
Next, U45C A65G G127U: 0.06.
For A31U U85C A107U A140U the value was 0.07; for U15C U23C A140G, 1.33.
Turning to U5A U14C A50U, the self-cleavage came to 0.68.
Next, U14C U119C A140G: 1.2; C16U G21U U52C: 1.29; C28U U47C A57U A65G A129U: 0.09.
For A43G A50G A59G A77U A141G the value was 0.11.
In the case of G36A A50U U96G, the self-cleavage turned out to be 0.05.
Turning to U12C U20A U104G A138G, the self-cleavage was determined as 1.2.
Next, U20C C90U A92G: 0.06; U20C U62C C90G U102A A136G: 0.05.
With U12C U39A A67G G106U, the self-cleavage stood at 0.76.
For U9C A57G A138G A141G the value was 1.64.
Next, A64U U73C A107G U119A: 0.64; U14C U20A A77G: 1.56; A92G U119C G126C G127U U132C: 0.06.
For U26A U115C A140U the value was 1.59; for A64U C71G G137U, 0.09; for U29A A59G U134A A136U, 0.12.
In the case of U39C A59G A79U U119A, the self-cleavage stood at 0.
For A79G U100C A117G the value was 0; for U14C C18A U20C A69U A124G, 0.38.
For A24G A64G A117G the value was 0.
For A2G A42U A78G A121G the value was 0; for G21U A57G U134C, 0.14; for U45G G75A U85A, 0.08.
As to C16U A65G G72A A141G, the self-cleavage is 0.02.
Next, U47C A78G A129G: 1.49; A50G U52C A138G: 1.84.
For A22U G83A U100C the value was 1.3; for U9C U13C A57U U85A, 0.64.
Take U20C A43U A142G: the self-cleavage was 1.84.
Consider A65U U96C G144A, for which the self-cleavage is 0.05.
Take U108C A124G G126U: the self-cleavage came to 2.07.
Next, A69G G125U U143A: 0.53.
Next, A67G A94G U109A U112A: 0.38; U13C A64G A65G U112A A141G: 0.
For U39C A67U U81A the value was 0.06; for U20A U26G U47A U132A, 1.01; for A42G A124G A136G A140G, 0.37.
Regarding A67U G105A U115C, the self-cleavage was found to be 1.02.
For U13C A50G U109A the value was 0.78.
Next, A22U U26C U109A: 1.53.
For A2G U134C A138G the value was 0; for U45C A59U A92U, 0.52; for A2U A59G C128U U130C, 0.
In the case of A42G U100C A129G, the self-cleavage amounted to 1.
Next, A59U U62A A140G: 0; G32U A42G C56U A67U U87C: 0.02.
Next, U1A U14C U47C: 1.07.
For U52A A57G G125U the value was 0.44; for U15C A30U A79G G137U, 0.67.
Turning to U20C U39A U47C A77U U100A, the self-cleavage turned out to be 1.05.
For the variant U85C U115C A117G, the self-cleavage came out at 0.
Next, A2G U52A A138U: 0.44; U15C A22G G40A A141G: 1.37; U100C A141G U143G: 2.02.
Next, U15C U23A A42U U115C: 0.84.
Turning to A43G U96A U112C G122A U130A, the self-cleavage was determined as 0.04.
Next, G7U A67G A140G: 0.77; U73C A94G U115A: 0.69; A2G U14A U20A G105A: 0.68.
For G54U U62C A78G G105A A124G the value was 0.02.
For A30U A94G U143C the value was 0.14.
U47C A121U A141G: the self-cleavage was 1.6.
Next, U47C A78G U112C: 0.
For A2G A57U U132C the value was 0.
For the variant U39A U45C U100A A124G, the self-cleavage was found to be 1.01.
For C28U A117U U143C the value was 1.24; for U9A C16U G72A U91C U119G A129G A136G, 0; for U12C A57G A129G, 1.53.
Next, U13C A107G U112C: 1.44.
As for U100C U119A A136G, the self-cleavage was 1.89.
For U15G A31G U39C U46C A77G the value was 0.
As for A2G U20A U115C, the self-cleavage was found to be 0.37.
In the case of U13C A65U U130A, the self-cleavage amounted to 0.16.
For A65G A129U A138U the value was 0.09; for A43G A64G A121G U132C, 0; for A79U A92C A141U U143A, 0.27.
Next, A2C G72A U73C U100C G105A A141G: 1.73; U13C A42U U104C: 1.28.
For G11A A65G U134C the value was 0.1; for U52A A64G U112A A136G U143C, 0.28; for G10A U81C C113U, 1.33.
In the case of A6G U9A G49U U62C A121C, the self-cleavage turned out to be 0.16.
As for U5A U13C U15C U85C, the self-cleavage is 0.27.
For U14C A64G U73A U134A the value was 0.48.
On to A57U U62C U81G, for which the self-cleavage was determined as 0.05.
For U13C C18U U73C U96C U134G the value was 0; for U9A U14C U23C U39C U62A A79G, 0; for U14C U20C G80U U112C, 1.24.
For U12C U96G A124U A140G the value was 0.
For U46G U102A A121G U132C the value was 0.57; for U29C U47A U62C, 0.12; for U12G A22G G36U U132C A136C, 1.08.
Regarding A59G U85A U108C A121G U130A, the self-cleavage came to 0.77.
For A22U A59G A79G A124G G126A A138U the value was 0.05; for A2G A57U U115C, 0.67.
Next, A69G C71U A136G: 0.18; G48U A94C U143A: 0.02.
Next, U91C U100C A142G: 0.66; U108C U112C A129G: 1.15.
In the case of U9C U52C A64U G114A U134A, the self-cleavage worked out at 0.32.
For A64U U112C G137A the value was 0.34; for A42G U47A A142U U143A, 0.98.
Next, U15C C56A U119C: 0.25.
